# The other results are listed elsewhere or left out.
# Columns and labels:
# Assay in all cases: glycan array binding signal (z-score within array); higher = stronger binding
# Conditions in all cases: glycan notation: IUPAC condensed, linker removed
# [1] = target: Fuc(a1-2)Gal(b1-4)GlcNAc(b1-3)Gal(b1-4)GlcNAc(b1-3)Gal(b1-4)GlcNAc
# Summary of the method: (§1)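 From the Consortium for Functional Glycomics database, 3228 arrays were curated, keeping only those whose protein sequence was available. Binding is given as a within-array Z-score averaged across arrays sharing a protein sequence and across linkers. Negative Z-scores can be read as non-binding.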
# [2] = target: Fuc(a1-2)Gal(b1-4)GlcNAc(b1-3)GalNAc
# Summary of the method: as §1
# [3] = target: Fuc(a1-2)Gal(b1-4)GlcNAc(b1-3)[Fuc(a1-2)Gal(b1-4)GlcNAc(b1-6)]GalNAc
# Summary of the method: as §1
# [4] = target: Fuc(a1-2)Gal(b1-4)GlcNAc(b1-3)[Fuc(a1-3)[Gal(b1-4)]GlcNAc(b1-6)]Gal(b1-4)Glc
# Summary of the method: as §1
# [5] = target: Fuc(a1-2)Gal(b1-4)GlcNAc(b1-6)GalNAc
# Summary of the method: as §1
# [6] = target: Fuc(a1-2)Gal(b1-4)GlcNAc6S
# Summary of the method: as §1
# [7] = target: Fuc(a1-2)Gal(b1-4)[Fuc(a1-3)]GlcNAc
# Summary of the method: as §1
# [8] = target: Fuc(a1-2)Gal(b1-4)[Fuc(a1-3)]GlcNAc(b1-2)Man(a1-3)[Fuc(a1-2)Gal(b1-4)[Fuc(a1-3)]GlcNAc(b1-2)Man(a1-6)]Man(b1-4)GlcNAc(b1-4)GlcNAc
# Summary of the method: as §1
# [9] = target: Fuc(a1-2)Gal(b1-4)[Fuc(a1-3)]GlcNAc(b1-2)Man(a1-3)[Fuc(a1-2)Gal(b1-4)[Fuc(a1-3)]GlcNAc(b1-2)Man(a1-6)]Man(b1-4)GlcNAc(b1-4)[Fuc(a1-6)]GlcNAc
# Summary of the method: as §1
# [10] = target: Fuc(a1-2)Gal(b1-4)[Fuc(a1-3)]GlcNAc(b1-2)[Fuc(a1-2)Gal(b1-4)[Fuc(a1-3)]GlcNAc(b1-4)]Man(a1-3)[Fuc(a1-2)Gal(b1-4)[Fuc(a1-3)]GlcNAc(b1-2)Man(a1-6)]Man(b1-4)GlcNAc(b1-4)GlcNAc
# Summary of the method: as §1
# [11] = target: Fuc(a1-2)Gal(b1-4)[Fuc(a1-3)]GlcNAc(b1-3)Gal(b1-4)Glc
# Summary of the method: as §1
# [12] = target: Fuc(a1-2)Gal(b1-4)[Fuc(a1-3)]GlcNAc(b1-3)Gal(b1-4)[Fuc(a1-3)]GlcNAc
# Summary of the method: as §1
# [13] = target: Fuc(a1-2)Gal(b1-4)[Fuc(a1-3)]GlcNAc(b1-3)Gal(b1-4)[Fuc(a1-3)]GlcNAc(b1-3)Gal(b1-4)[Fuc(a1-3)]GlcNAc
# Summary of the method: as §1
# [14] = target: Fuc(a1-2)Gal(b1-4)[Fuc(a1-3)]GlcNAc(b1-3)GalNAc
# Summary of the method: as §1
# [15] = target: Fuc(a1-2)Gal(b1-4)[Fuc(a1-3)]GlcNAc(b1-3)[Fuc(a1-2)]Gal(b1-4)Glc
# Summary of the method: as §1
# [16] = target: Fuc(a1-2)Gal(b1-4)[Fuc(a1-3)]GlcNAc(b1-3)[Neu5Ac(a2-6)Gal(b1-4)GlcNAc(b1-6)]Gal(b1-4)Glc
# Summary of the method: as §1
# [17] = target: Fuc(a1-2)Gal3S(b1-4)GlcNAc
# Summary of the method: as §1
# [18] = target: Fuc(a1-2)Gal6S(b1-3)GlcNAc
# Summary of the method: as §1
# [19] = target: Fuc(a1-2)Gal6S(b1-3)GlcNAc6S
# Summary of the method: as §1
# [20] = target: Fuc(a1-2)Gal6S(b1-4)Glc
# Summary of the method: as §1
# [21] = target: Fuc(a1-2)Gal6S(b1-4)Glc6S
# Summary of the method: as §1
# [22] = target: Fuc(a1-2)Gal6S(b1-4)GlcNAc
# Summary of the method: as §1
# [23] = target: Fuc(a1-2)GlcNAc
# Summary of the method: as §1
# [24] = target: Fuc(a1-2)[Gal(a1-3)]Gal
# Summary of the method: as §1
# [25] = target: Fuc(a1-2)[Gal(a1-3)]Gal(b1-3)GalNAc
# Summary of the method: as §1
# [26] = target: Fuc(a1-2)[Gal(a1-3)]Gal(b1-3)GalNAc(b1-3)Gal(a1-4)Gal(b1-4)Glc
# Summary of the method: as §1
# [27] = target: Fuc(a1-2)[Gal(a1-3)]Gal(b1-3)GlcNAc
# Summary of the method: as §1
# [28] = target: Fuc(a1-2)[Gal(a1-3)]Gal(b1-3)GlcNAc(b1-2)Man(a1-3)[Fuc(a1-2)[Gal(a1-3)]Gal(b1-3)GlcNAc(b1-2)Man(a1-6)]Man(b1-4)GlcNAc(b1-4)GlcNAc
# Summary of the method: as §1
# [29] = target: Fuc(a1-2)[Gal(a1-3)]Gal(b1-3)GlcNAc(b1-2)Man(a1-3)[Fuc(a1-2)[Gal(a1-3)]Gal(b1-3)GlcNAc(b1-2)Man(a1-6)]Man(b1-4)GlcNAc(b1-4)[Fuc(a1-6)]GlcNAc
# Summary of the method: as §1
# [30] = target: Fuc(a1-2)[Gal(a1-3)]Gal(b1-3)GlcNAc(b1-3)GalNAc
# Summary of the method: as §1
# [31] = target: Fuc(a1-2)[Gal(a1-3)]Gal(b1-3)GlcNAc(b1-6)GalNAc
# Summary of the method: as §1
# [32] = target: Fuc(a1-2)[Gal(a1-3)]Gal(b1-4)Glc
# Summary of the method: as §1
# [33] = target: Fuc(a1-2)[Gal(a1-3)]Gal(b1-4)GlcNAc
# Summary of the method: as §1
# [34] = target: Fuc(a1-2)[Gal(a1-3)]Gal(b1-4)GlcNAc(b1-2)Man
# Summary of the method: as §1
# [35] = target: Fuc(a1-2)[Gal(a1-3)]Gal(b1-4)GlcNAc(b1-2)Man(a1-3)[Fuc(a1-2)[Gal(a1-3)]Gal(b1-4)GlcNAc(b1-2)Man(a1-6)]Man(b1-4)GlcNAc(b1-4)GlcNAc
# Summary of the method: as §1
# [36] = target: Fuc(a1-2)[Gal(a1-3)]Gal(b1-4)GlcNAc(b1-2)Man(a1-3)[Fuc(a1-2)[Gal(a1-3)]Gal(b1-4)GlcNAc(b1-2)Man(a1-6)]Man(b1-4)GlcNAc(b1-4)[Fuc(a1-6)]GlcNAc
# Summary of the method: as §1
# [37] = target: Fuc(a1-2)[Gal(a1-3)]Gal(b1-4)GlcNAc(b1-3)Gal(b1-4)Glc
# Summary of the method: as §1
# [38] = target: Fuc(a1-2)[Gal(a1-3)]Gal(b1-4)GlcNAc(b1-3)GalNAc
# Summary of the method: as §1
# [39] = target: Fuc(a1-2)[Gal(a1-3)]Gal(b1-4)GlcNAc(b1-6)GalNAc
# Summary of the method: as §1
# [40] = target: Fuc(a1-2)[Gal(a1-3)]Gal(b1-4)[Fuc(a1-3)]Glc
# Summary of the method: as §1
# [41] = target: Fuc(a1-2)[Gal(a1-3)]Gal(b1-4)[Fuc(a1-3)]GlcNAc
# Summary of the method: as §1
# [42] = target: Fuc(a1-2)[Gal(a1-3)]Gal(b1-4)[Fuc(a1-3)]GlcNAc(b1-3)GalNAc
# Summary of the method: as §1
# [43] = target: Fuc(a1-2)[Gal(a1-4)]Gal(b1-4)GlcNAc
# Summary of the method: as §1
# [44] = target: Fuc(a1-2)[GalNAc(a1-3)]Gal
# Summary of the method: as §1
# [45] = target: Fuc(a1-2)[GalNAc(a1-3)]Gal(b1-3)GalNAc(a1-3)[Fuc(a1-2)]Gal(b1-4)GlcNAc
# Summary of the method: as §1
binder,measurement,setting,value
"PNA (Arachis hypogaea), P02872 (protein) MKPFCVFLTFFLLLAASSKKVDSAETVSFNFNSFSEGNPAINFQGDVTVLSNGNIQLTNLNKVNSVGRVLYAMPVRIWSSATGNVASFLTSFSFEMKDIKDYDPADGIIFFIAPEDTQIPAGSIGGGTLGVSDTKGAGHFVGVEFDTYSNSEYNDPPTDHVGIDVNSVDSVKTVPWNSVSGAVVKVTVIYDSSTKTLSVAVTNDNGDITTIAQVVDLKAKLPERVKFGFSASGSLGGRQIHLIRSWSFTSTLITTTRRSIDNNEKKIMNMASA",glycan array binding signal (z-score),[1],-0.113
same,glycan array binding signal (z-score),[2],-0.192
same,glycan array binding signal (z-score),[3],-0.24
same,glycan array binding signal (z-score),[4],-0.142
same,glycan array binding signal (z-score),[5],-0.167
same,glycan array binding signal (z-score),[6],-0.144
same,glycan array binding signal (z-score),[7],-0.164
same,glycan array binding signal (z-score),[8],-0.007
same,glycan array binding signal (z-score),[9],-0.135
same,glycan array binding signal (z-score),[10],-0.107
same,glycan array binding signal (z-score),[11],-0.195
same,glycan array binding signal (z-score),[12],-0.198
same,glycan array binding signal (z-score),[13],-0.16
same,glycan array binding signal (z-score),[14],-0.037
same,glycan array binding signal (z-score),[15],-0.195
same,glycan array binding signal (z-score),[16],-0.326
same,glycan array binding signal (z-score),[17],-0.183
same,glycan array binding signal (z-score),[18],-0.374
same,glycan array binding signal (z-score),[19],-0.266
same,glycan array binding signal (z-score),[20],-0.186
same,glycan array binding signal (z-score),[21],-0.145
same,glycan array binding signal (z-score),[22],-0.158
same,glycan array binding signal (z-score),[23],-0.21
same,glycan array binding signal (z-score),[24],-0.173
same,glycan array binding signal (z-score),[25],-0.246
same,glycan array binding signal (z-score),[26],-0.328
same,glycan array binding signal (z-score),[27],-0.115
same,glycan array binding signal (z-score),[28],-0.158
same,glycan array binding signal (z-score),[29],-0.244
same,glycan array binding signal (z-score),[30],-0.24
same,glycan array binding signal (z-score),[31],-0.158
same,glycan array binding signal (z-score),[32],-0.158
same,glycan array binding signal (z-score),[33],-0.167
same,glycan array binding signal (z-score),[34],-0.159
same,glycan array binding signal (z-score),[35],-0.179
same,glycan array binding signal (z-score),[36],-0.238
same,glycan array binding signal (z-score),[37],-0.195
same,glycan array binding signal (z-score),[38],-0.202
same,glycan array binding signal (z-score),[39],-0.271
same,glycan array binding signal (z-score),[40],-0.09
same,glycan array binding signal (z-score),[41],-0.103
same,glycan array binding signal (z-score),[42],-0.214
same,glycan array binding signal (z-score),[43],-0.155
same,glycan array binding signal (z-score),[44],-0.219
same,glycan array binding signal (z-score),[45],-0.181
